# Measured values taken from PubChem BioAssay AID1956 (SRMLSC, 2009).
# This is one part of the list. The main result of the screen is listed elsewhere. These columns were measured beside it and carry no call.
# Assay: enhancers of HSV replication in host cells, fold increase, host cell viability (AID 1956); further: tested in PC3 cells
# Settings: HSV replication augmentation in cells; fold increase: measured here: primary screen fold increase 10 uM, at 10 µM, stronger effect = higher value; viability: measured here: host cell viability series, at 25 µM, stronger effect = lower value
Compound,fold increase,viability
COc1ccc(S(=O)(=O)N2CCCCC2C(=O)O)cc1 (configuration not stated),1.33,96.7%
CC(C)OCCCn1c(=NC(=O)c2ccncc2)c(C#N)cc2c(=O)n3ccccc3nc21,1.32,97.6%
Cc1ccc(Oc2nnc(-c3ccccc3)c3ccccc23)cc1,1.47,78.5%
CCOC(=O)c1sc(NC(=O)CSc2nc3c(cc2C#N)CCCCCC3)c(C#N)c1C,3.16,70.1%
COc1ccc(-[n+]2c(C)cc(/C=C3\Sc4ccccc4N3C)cc2C)cc1,6.75,33.1%
O=[N+]([O-])c1cccc(-c2cn3nc(-c4ccccc4)c(-c4ccccc4)nc3n2)c1,1.52,88.3%
CC[C@@]1(O)C(=O)OCc2c1cc1n(c2=O)Cc2cc3c(CN(C)C)c(O)ccc3nc2-1,2.56,28.8%
COc1cc(N2CCCC2)c(OC)cc1/C=C(/C#N)c1ccc(F)cc1,2.04,88.4%
O=C1NC(=S)/C(=C\c2ccc(-c3ccccc3Cl)o2)S1,1.37,64.3%
COc1ccc(/C=N/NC(=O)c2cc(-c3ccccc3OC)nc3ccccc23)cc1COC(C)=O,1.09,
Cc1c(S(=O)(=O)c2ccccn2)c(N)n(Cc2ccccc2)c1C,1.45,85.3%
O=C(Cn1nc2ccccc2n1)N/N=C/c1cc([N+](=O)[O-])ccc1O,1.39,
O=[N+]([O-])c1ccc(N/N=C/c2ccccc2)c(F)c1,1.51,
COc1ccc(CCN2C(=O)C3C4C=CC(C4)C3C2=O)cc1OC (configuration not stated),1.39,93.3%
COc1ccc(O)c(C(=O)c2coc(=N)c(C(=O)Nc3ccc(SC(F)F)cc3)c2)c1,3.33,78.2%
CCn1cc([N+](=O)[O-])c(C(=O)N2N=C(c3ccc4ccccc4c3)CC2c2ccccc2O)n1 (configuration not stated),1.13,
COc1cc(/C=C2\SC(=Nc3cccnc3)NC2=O)cc(OC)c1OC,1.61,91.7%
CCCSc1nc(=O)n2cc(C)ccc2n1,1.33,98.1%
NC(=S)N/N=C/c1cccc(O)c1O,1.45,89.2%
O=C(CN(CC1CCCO1)S(=O)(=O)c1ccc(S(=O)(=O)NCC2CCCO2)cc1)Nc1ccccc1 (configuration not stated),1.56,100%
Cn1cc(/C=C2\SC(=S)N(NC(=O)c3ccccc3Cl)C2=O)c2ccccc21,1.47,88.9%
Cc1nn(C)c(C)c1/C=N/O,1.3,
N#C/C(=C\c1ccc(N2CCOCC2)o1)C(=O)NCCc1ccccc1,3.58,92%

Compound,fold increase,viability
CCN(CC)c1ccc2cc(C(C)=O)c(=O)oc2c1,1.64,
CCCSc1nnc(Cn2c(=O)sc3ccccc32)n1C,1.48,99.6%
CCCCCCc1cc2cc(-c3nnc(-c4ccccc4O)o3)c(=O)oc2cc1O,6.55,39.7%
COC(=O)C1=C(O)/C(=C\c2ccc(CNS(=O)(=O)c3ccc(Cl)cc3)o2)N=C1C,1.56,89.8%
Cc1ccc(S(=O)(=O)N[C@H](C(=O)Oc2ccc3c(C(F)(F)F)cc(=O)oc3c2)c2ccccc2)cc1,1.25,96.3%
CCN1CCC2(CC1)C(C#N)=C(N)Oc1c2sc2nc(C)cc(C)c12,1.49,104%
Cc1cc(C(=O)COc2cccnc2[N+](=O)[O-])c(C)n1Cc1ccco1,1.36,93.9%
CCOC(=O)c1c(C)[nH]c(C(=O)/C(C#N)=C/c2ccc(OCC)cc2)c1C,1.51,98.9%
Cc1cc(C)c[n+](-c2nc3ccccc3nc2[N-]S(=O)(=O)c2ccc(Br)s2)c1,2.06,100%
CNc1ccccc(-c2ccc3cc4c(cc3n2)OCO4)c1=O,1.65,92.4%
Nc1ccc2c(c1)Cc1cc([N+](=O)[O-])ccc1-2,1.52,97%
O=S(=O)([O-])CCC[n+]1c(/C=C\Nc2ccccc2)oc2ccc(-c3ccccc3)cc21,9.77,92.7%
C/C(=N\NC(=O)C(=O)Nc1ccc(C)c(Cl)c1)c1ccncc1,1.45,95%
CN(CC(O)COc1ccc(S(=O)(=O)N2CCOCC2)cc1Cl)C1CCCCC1 (configuration not stated),1.32,
COc1cc(/C=C2\SC(=N)N(c3ccc(F)cc3)C2=O)ccc1O,2.05,81.3%
CC1=CN2C(=N)/C(=C/c3ccc([N+](=O)[O-])o3)C(=O)N=C2S1,2.72,95%
CCCCCCc1cc2cc(C(=O)Nc3ccccc3OC)c(=O)oc2cc1O,1.45,
COc1ccc(CCc2nnc(CCC(=O)N(C)Cc3ccnc4ccccc34)o2)cc1,1.33,27.3%
Cc1cc2cc(C=C(C#N)C#N)c(Cl)nc2cc1C,1.56,93.1%
CC1=Nc2ccc3ccccc3c2C1(C)C,2.69,94.3%
Cc1cc(=O)[nH]c(SCC(=O)/C=C2\N(C)c3ccccc3C2(C)C)n1,1.49,58.5%
Cc1cc[n+](-c2[nH]c(=O)sc2/C=N/NC([S-])=Nc2ccccc2)cc1C,3.3,
O=C(c1ccco1)[C@@H]1[C@@H]2C(=O)N(c3ccc(Br)cc3)C(=O)[C@@H]2C2c3ccccc3C=CN21 (some centres not stated),1.23,
